# Test results taken from paper PMC4336329 (PLoS ONE, 2015).
# Out of some 310,000 compounds screened, about 14,000 (4.5%) showed an effect of 50% or more. The effect is printed as a negative number. The list shows a part of the results.
# Molecular target: human ether-à-go-go-related gene (hERG) potassium channel (human, UniProt Q12809)
# Assay: primary screen, population patch clamp on CHO cells stably expressing hERG
# 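Also: peak tail current of the secondary pulse compared with the same well before compound.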
# Chain of human ether-à-go-go-related gene (hERG) potassium channel (Q12809 whole entry, looked up): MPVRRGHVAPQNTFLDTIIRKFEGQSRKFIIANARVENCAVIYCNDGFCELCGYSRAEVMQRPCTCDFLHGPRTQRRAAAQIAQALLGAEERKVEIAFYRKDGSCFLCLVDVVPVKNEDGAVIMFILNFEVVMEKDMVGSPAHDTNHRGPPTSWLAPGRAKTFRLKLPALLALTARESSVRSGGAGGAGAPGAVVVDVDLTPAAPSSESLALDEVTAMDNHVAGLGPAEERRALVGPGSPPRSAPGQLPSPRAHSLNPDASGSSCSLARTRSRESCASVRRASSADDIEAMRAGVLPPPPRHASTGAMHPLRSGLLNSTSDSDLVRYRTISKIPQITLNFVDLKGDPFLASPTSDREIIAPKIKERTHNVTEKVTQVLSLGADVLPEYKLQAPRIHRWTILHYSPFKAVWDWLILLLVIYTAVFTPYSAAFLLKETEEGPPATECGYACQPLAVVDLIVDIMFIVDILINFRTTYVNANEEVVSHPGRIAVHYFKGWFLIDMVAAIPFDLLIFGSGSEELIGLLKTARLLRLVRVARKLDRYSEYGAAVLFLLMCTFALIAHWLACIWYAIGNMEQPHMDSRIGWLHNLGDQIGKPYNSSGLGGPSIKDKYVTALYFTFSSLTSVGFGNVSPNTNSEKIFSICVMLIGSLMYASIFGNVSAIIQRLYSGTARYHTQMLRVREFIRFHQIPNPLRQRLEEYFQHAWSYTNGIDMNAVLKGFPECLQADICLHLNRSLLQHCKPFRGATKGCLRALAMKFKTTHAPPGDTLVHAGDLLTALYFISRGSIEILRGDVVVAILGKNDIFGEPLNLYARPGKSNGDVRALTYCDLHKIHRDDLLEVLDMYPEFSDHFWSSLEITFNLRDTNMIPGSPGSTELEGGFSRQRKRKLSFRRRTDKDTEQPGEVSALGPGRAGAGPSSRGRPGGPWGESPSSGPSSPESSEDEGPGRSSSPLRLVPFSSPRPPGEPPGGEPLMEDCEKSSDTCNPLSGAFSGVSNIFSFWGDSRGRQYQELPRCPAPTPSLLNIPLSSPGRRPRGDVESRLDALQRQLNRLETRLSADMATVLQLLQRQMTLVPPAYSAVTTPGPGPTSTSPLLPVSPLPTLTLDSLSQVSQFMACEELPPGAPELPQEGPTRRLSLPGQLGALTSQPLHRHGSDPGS
row,SMILES,"hERG current change (%, negative = inhibition) at 10uM [%]"
1,CCO.CCOC(=O)C1=C(C)Nc2sc(C(=O)c3ccc(C)cc3)c(N)c2C1c1ccc(C(=O)OC)cc1 (stereo not shown),21.9
2,Cc1ccc(C(C)C)c(OCC(=O)NNC(=O)C(C(C)C)N2C(=O)c3ccccc3C2=O)c1 (stereo not shown),3.3
3,Cc1cccc(NS(=O)(=O)c2cccc(C(=O)NCCCN3CCOCC3)c2)c1,-10.8
4,Cc1ccc(C)c(S(=O)(=O)N2CCN(C(=O)c3cc(S(=O)(=O)NCc4ccccc4)ccc3C)CC2)c1,1.79
5,Cc1nc(C(F)(F)F)ccc1C(=O)Nc1ccccc1F,11.7
6,C[C@]12C[C@H](O)[C@@H]3c4ccc(O)cc4CCC3[C@@H]1CCC2=O (stereo partly shown),9.39
7,CC[N+](C)(CC)CCC[n+]1c(-c2ccccc2)c2cc(N)ccc2c2ccc(N)cc21.[I-],7.78
8,COc1ccc(CNc2nc3c(c(=O)[nH]c(=O)n3C)n2CCCc2ccccc2)cc1,11.8
9,O=C(CSc1ccccc1)N1CCN(S(=O)(=O)c2cccs2)CC1,-11
10,COc1cc2c(cc1OC)C(c1cccc(Br)c1)NC(=O)C2 (stereo not shown),14
11,Cc1cc(C)nc(Nc2ccccc2Cl)n1.Cl,-0.243
12,O=C(NCc1ccco1)C1CC(c2ccc(C(F)(F)F)cc2)=NO1 (stereo not shown),7.87
13,Cc1cccc(S(=O)(=O)Nc2nc3ccccc3nc2Nc2ccc3c(c2)OCO3)c1,4.97
14,CC1(C)C2CC[C@]3(C)C(CC=C4[C@@H]5C[C@](C)(CO)CC[C@]5(C(=O)O)CC[C@]43C)[C@@]2(C)CC[C@@H]1O (stereo partly shown),7.74
15,CCN(Cc1ccccc1)C(=O)CCS(=O)(=O)c1ccc2c(c1)NC(=O)CO2,-12.9
16,CC(=O)Cc1nsc(NC(=O)c2ccc(COc3cccc(C)c3)o2)n1,7.47
17,Cc1nc(Sc2ccccc2)c(C#N)c(C)c1[N+](=O)[O-],8.6
18,Cc1nnnn1/C(=C\c1ccccc1)C(=O)OCC(=O)N1CC2(C)CC1CC(C)(C)C2 (stereo not shown),-11.1
19,C=CCSc1nnc(-c2cc(Br)ccc2N)c(=O)[nH]1,17.4
20,O=C(CN(C(=O)c1csnn1)c1ccc(Cl)cc1)NCCc1ccccc1,-5.16
21,CSc1ccccc1NC(=O)COc1ccccc1Cl,-1.2
22,O=C(Oc1ccccc1-c1nnco1)c1ccccc1,0.787

row,SMILES,"hERG current change (%, negative = inhibition) at 10uM [%]"
1,O=C1CSC(=S)N1/N=C/c1cc(Br)ccc1O,20.6
2,COc1cc(/C=N/Nc2nc(C)cc(=O)[nH]2)cc(OC)c1O,22
3,O=C(COc1coc(CN2CCN(c3ccccc3)CC2)cc1=O)Nc1ccccc1,7.23
4,O=C(Nc1ccc2oc(=O)ccc2c1)c1ccc(-c2ccccc2[N+](=O)[O-])o1,9.83
5,COc1ccc(OC)c(NC(=O)[C@H]2CC=CC[C@H]2C(=O)O)c1,4.31
6,CCc1ccc(NC(=O)Cn2c(=O)c3cccn3c3ccccc32)cc1,25
7,CCOC(=O)Cn1c(=O)c2c(nc3n2CCCN3CCc2ccccc2)n(C)c1=O,-30.9
8,CC1=C(C(=O)Nc2cccnc2)C(c2ccc3c(c2)OCO3)C2=C(CCCC2=O)N1 (stereo not shown),26
9,Cc1cccc(C)c1NC(=O)CS(=O)CC(=O)Nc1ccc(N2CCOCC2)cc1 (stereo not shown),15.3
10,Cc1ccc(-n2c(=O)[nH]c3c(oc4ccccc43)c2=O)cc1,-0.961
11,CC(=O)Nc1cccc(OCC(=O)NC(C)C(C)C)c1 (stereo not shown),9.05
12,N#Cc1ccc(Cn2c(=O)c(C#N)c3n(c2=O)CCC3)cc1,-37.7
13,Cc1ccccc1OCC(=O)Nc1ccc(N2CCN(C(=O)C(C)C)CC2)c(Cl)c1,-31.2
14,Cc1cccc(-n2cc[nH]c2=S)c1,22.9
15,O=c1[nH]cnc2c1nnn2Cc1ccccc1,17.2
16,O=C(CCn1c(=S)oc2ccccc21)N1CCCCC1,-7.1
17,Cl.NCC(CC(=O)O)c1ccc(Cl)cc1 (stereo not shown),3.99
18,COc1ccc(C2=NN(C(=O)CSc3ncccn3)C(c3cccc(OC)c3OC)C2)cc1 (stereo not shown),-8.82
19,NC(=O)c1ccc(-n2nnnc2SCC(=O)Nc2ccc(N3CCOCC3)c(Cl)c2)cc1,1.33
20,Cc1cc(NC(=O)COC(=O)c2ccccc2S(=O)(=O)N(C)c2ccccc2)no1,-12.6
21,O=c1onc(-c2cccs2)n1Cc1ccccc1,-2.74
22,CCC(C)NC(=O)C(Cc1ccccc1)NS(=O)(=O)c1ccc2c(c1)CCC(=O)N2 (stereo not shown),20.8

row,SMILES,"hERG current change (%, negative = inhibition) at 10uM [%]"
1,COc1ccc(N2C3=C(C(=O)CC(C)(C)C3)C(c3cnn(C)c3)C3=C2CC(C)(C)CC3=O)cc1,2.73
2,Cc1nnc(SCC(=O)Nc2cccc(S(=O)(=O)NC3=NCCCCC3)c2)n1Cc1ccccc1,16.7
3,Cc1ccccc1OCC(=O)NCCN(C)C,-1.74
4,COc1ccc(CCN2CC(C(=O)N(C)Cc3ccc(C)o3)CCC2=O)cc1 (stereo not shown),-6.77
5,O=C(CSc1nnc2scc(-c3ccccc3)n12)Nc1nsc(-c2ccc(Cl)cc2)n1,-3.5
6,CC(=O)Nc1ccc(NC(=O)c2cc(-c3ccccc3)nc3ccccc23)cc1,17.1
7,CNc1nc(SCC(=O)Nc2ccccc2)nc(N2CCOCC2)n1,21.9
8,COc1cc(NC(=O)c2ccc3snnc3c2)cc(OC)c1,13.5
9,Cc1cc(=O)n(C)c(=O)n1CCCCOc1cccc([N+](=O)[O-])c1,-14.5
10,CCCCCCCCCCCCN1[C@@H](CC(=O)OC)c2cc(C(F)(F)F)ccc2S1(=O)=O,-16.2
11,CC(NCC(O)COCc1cccs1)C1CC2CCC1C2 (stereo not shown),-8.05
12,O=C(CN1CCN(CC(=O)Nc2ccccc2Cl)CC1)NCC1(N2CCCCC2)CCCCC1,-39.7
13,CCN=C1SC(CC(=O)Nc2ccccc2)C(=O)N1CC (stereo not shown),-19.8
14,CN(CC(=O)N(CCO)Cc1ccccc1)S(=O)(=O)c1ccc2c(c1)c(=O)n(C)c(=O)n2C,-16.8
15,COc1ccc(C(=O)NCC(=O)N/N=C(C)\C=C\c2ccccc2)cc1OC,-19.3
16,O=C(O)c1ccc(Cn2ccc3ccccc32)o1,8.09
17,COc1ccc(CN2CCNC(=O)C2CC(=O)NC2CCCC2)cc1OC (stereo not shown),6.22
18,CC(Sc1ccccc1)C(=O)N1CCN(S(=O)(=O)c2cccc(Br)c2)CC1 (stereo not shown),-11.9
19,CCc1ccc(OCC(=O)NCc2ccco2)c(Br)c1,-2.74
20,CCOC(=O)CC(=O)CSC1=C(C#N)C(c2ccccc2OC)CC(=O)N1 (stereo not shown),-35.1
21,Cc1ccc(CN(C(=O)c2cc3ccccc3oc2=O)C2CCS(=O)(=O)C2)cc1 (stereo not shown),-34
22,Cc1cccc(N2CCN(C(=O)c3cc4cc(F)ccc4[nH]3)CC2)c1C,8.46

row,SMILES,"hERG current change (%, negative = inhibition) at 10uM [%]"
1,Cc1ccc(-c2c(C(=O)N/N=C/c3ccsc3)nnn2-c2nonc2N)cc1,8.75
2,O=C(c1cc(-c2ccccc2)nc2ccccc12)N1CCCc2ccccc21,0.0991
3,Cc1cccc(C)c1OCC(=O)OC/C(O)=C(\C#N)c1nc2ccccc2[nH]1,12.6
4,CCCc1cc(=O)n2[nH]c(NCc3c(F)cccc3Cl)nc2n1,15.4
5,O=c1nc2n(c3ccc(Br)cc13)CCS2,-13.2
6,Cc1cc(C(=O)COC(=O)c2n[nH]c(=O)c3ccccc23)c(C)n1C(C)C,-9.38
7,CN(C)C(=O)c1ccc(N/C=C(\C=O)c2nc3ccccc3o2)cc1,-17.8
8,COc1ccccc1NS(=O)(=O)c1cc(NC(=O)CNC(=O)c2ccc(C)s2)ccc1Cl,-6.01
9,CCCCc1cc(=O)oc2c(C)c(OCC(=O)NCC3CCC(C(=O)O)CC3)ccc12 (stereo not shown),-1.74
10,O=C(NCCc1cn2ccccc2n1)c1ccc(Br)o1,-28.9
11,COc1cc(C)nc(Oc2ccc(=O)[nH]n2)n1,-9.95
12,O=C(COC(=O)c1cccc(S(=O)(=O)NCc2ccccc2)c1)NCC1CCCO1 (stereo not shown),3.36
13,CN(C)c1ccc(-n2cc3c(=O)n(C)c(=O)n(C)c3c2)cc1,-1.19
14,O=C(O)COc1ccccc1C1C2C(=O)N(c3ccc(F)cc3)C(=O)C2ON1c1ccccc1 (stereo not shown),-5.93
15,CN(C(=O)Cn1cc(C#N)c2ccccc21)c1ccccc1,-6.8
16,Cc1cc(/C=N/n2c(COc3ccccc3)nc3ccccc3c2=O)c(O)c([N+](=O)[O-])c1,-14.6
17,COC(=O)c1ccccc1NC(=O)CSc1nnc(C(CO)NC(=O)c2ccccc2Cl)n1C (stereo not shown),12.9
18,COc1ccc2[nH]c3c(c2c1)CCN1C(=O)N([C@@H](C)C(=O)NCc2ccccc2)C(=O)[C@]31C,2.42
19,CCn1c(O)c(C=NCCc2c[nH]c3ccccc23)c(=O)[nH]c1=O,21.6
